Measurements from PMC12136788.
The other results are listed elsewhere or left out.

T1: UNK ZnF1-3 (human, UniProt Q9C0B0 31-174)
T1 sequence: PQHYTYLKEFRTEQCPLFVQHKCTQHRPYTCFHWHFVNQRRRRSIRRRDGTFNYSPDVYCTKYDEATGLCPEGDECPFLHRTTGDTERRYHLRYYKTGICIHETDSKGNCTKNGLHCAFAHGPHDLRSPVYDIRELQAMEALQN

B1: chr10:61154807:61154808:+_ENSMUSG00000020088_ENSMUST00000020285|mus_mus|motif|central (ssRNA)
RNA: GGGAGUUCUACAGUCCGACGAUCAACUCUUUCAUGAGGCAAAAGUCACUUUUUAUAUCUACAAUGGAAAAAAGGAAGGUGCGGCACAGAGAGAUGAAAUUUCACAACAGUAUAAAAGCAAAGCCUGCUGAAACUGGUAACUGCCAACAGAGGAUUGAGCAUCA
B2: chr4:88379012:88379013:+_ENSG00000170502_ENST00000302174|hu_hu|FALSE|FALSE (ssRNA)
RNA: GGGAGUUCUACAGUCCGACGAUCAUCAUUGAUGUCCACCCAUUUCACUUUUCCAGCAUCAUCUCCAGCUUCUAGCAUAAGAUUAUCCAUUAUCUCACCUGUUUCGUCAUGGUAGUUCACAGCUUCUGUCUCCAUCCAUGCAUUCAACAGAGGAUUGAGCAUCA
B3: 32338244_32338364_3061_CDS_ENSMUSG00000024002_ENSMUST00000121285|mouse|control|control (ssRNA)
RNA: GGGAGUUCUACAGUCCGACGAUCCAAAGGCGGUGGGGGUUGGGACUGCACCUUCACGGAAGGGAGUAGUGGUGUGGGAGGCUGCACCUUCUGCAGCUGCUGUAGGUACAACUGCAUCUGCAUGGAGGUGAGGGGUGGGGCAGGCAACAGAGGAUUGAGCAUCA
B4: chr12:72179577:72179578:+_ENSG00000080371_ENST00000261263|hu_hu|FALSE|FALSE (ssRNA)
RNA: GGGAGUUCUACAGUCCGACGAUCGUUUAGCACUUAAGGUCUCUGCAGUGUUAUAAACGUAAUUUAAAAUACUGUUAAUUCUAUAAUUCCAUUGGUAAAAUAAUGUGACUUGGAAUAUGGCAGUCUUCAUGUUGAGGGCAAUGACAACAGAGGAUUGAGCAUCA
B5: chr1:110565788:110565789:+_ENSG00000168710_ENST00000369799|hu_hu|FALSE|FALSE (ssRNA)
RNA: GGGAGUUCUACAGUCCGACGAUCCUUCUAUUUUUGUUUUUAAUGUCUGUCUCUCUGAUCAGUGGAAAAGUGAAAAUUUCUAGUAUCUAGCACUAACGUAUGACCCAACUUUGAGGGAUCACAAGCUAGAACAAGUUGAGGAUUCAACAGAGGAUUGAGCAUCA
B6: chr18:34481789:34481790:+_ENSMUSG00000005871_ENSMUST00000115781|mus_mus|FALSE|FALSE (ssRNA)
RNA: GGGAGUUCUACAGUCCGACGAUCAACAAGUGAACAGAAGUAUAGAGAAAAAUUAUCCUGAAUAUCAGAGGAAAGAAAGUCUAUUUAGCACCAAGAACAGCAUUAUACACAGAACAUACAGUCGGAAAGAUGCAUCAAUGGCCUCAACAGAGGAUUGAGCAUCA
B7: 48767909_48768029_1087_ncRNA_ENSMUSG00000026761_ENSMUST00000141441|mouse|control|control (ssRNA)
RNA: GGGAGUUCUACAGUCCGACGAUCGCACUUCAAAAUGUUAAUACAGAUUAUUAAUGAAUGUAUCAAAACAUAAGAUAGUCCAUUAAUAUGUAUAGUUUUUAUAUGCAAAAUAGGCAUAAUACGUAUGUACUUAUACAUAAAAAACAACAGAGGAUUGAGCAUCA
B8: chr1:220276048:220276049:+_ENSG00000067704_ENST00000302637|hu_hu|hu_hu_hu_mus_True|28_38 (ssRNA)
RNA: GGGAGUUCUACAGUCCGACGAUCGCAAAUUGCCUGGUUGGCGGGAAUUGUCCAAGGCUGGGUGGUCCAAACUAAAACGCUAACAGGGGAUGAGGCAUCUAUAAGAGAUGCCAAUUUCGGAGGAGGUCUCAGGAGGGGGAAUCUCAACAGAGGAUUGAGCAUCA
B9: chr3:179287964:179287965:+_ENSG00000136518_ENST00000429709|hu_hu|hu_hu_hu_mus_True|8_88 (ssRNA)
RNA: GGGAGUUCUACAGUCCGACGAUCCUUGAGUGGUGAGAUGGCCUCCAUAUUCUCCCUGGGCACGCGGAGGGCAUUGGUGUCUAUGUAGUAGGUGGGCCCGCCCUGCUUGCCUUUGUCACCAUCAAUCUCCAUUAAUGUACUUCCCAACAGAGGAUUGAGCAUCA
B10: chr17:57743871:57743872:+_ENSG00000141367_ENST00000269122|hu_mus|FALSE|FALSE (ssRNA)
RNA: GGGAGUUCUACAGUCCGACGAUCCAGCAGGCCCGCCUUCUCACACAGCUGGGCGAUAUGAGCCCGGUCAUAGUGGGUGAACAUCUGAUUCCCGAGAAUGGCAUCUGCAACUUGAGGUGCGUGCAUAAGGUUCAUCUCAAGCAACAACAGAGGAUUGAGCAUCA
B11: chr5:137520266:137520267:+_ENSG00000112984_ENST00000394894|hu_mus|FALSE|FALSE (ssRNA)
RNA: GGGAGUUCUACAGUCCGACGAUCCUCAAGGUCUGAGUCGGCCUUGUCCUCUUUCUCUAAGCCAGGGCCAACCUGAGGACUGUGCUUCUUGAUGAAUGAAUGCAGGGAUGGGAUUCCCAGAUGCACAGGUGGGGCGUGCACAAGCAACAGAGGAUUGAGCAUCA
B12: chr12:39756943:39756944:-_ENSG00000139116_ENST00000544797|hu_mus|hu_hu_hu_mus_False|58_58 (ssRNA)
RNA: GGGAGUUCUACAGUCCGACGAUCGGUUUGGCUGUUACCCCCAAGGGAAUCCUGCAAGAGUCUUGUCAGCUUAGAGUCUCUAUAGGGGACAUGGGUGGCUCUCUUGCUCUUGUCCCCCAAGGCGCUGAUUACAUUCCCAAGAGCCAACAGAGGAUUGAGCAUCA
B13: chr4:130382032:130382033:+_ENSMUSG00000025743_ENSMUST00000070478|mus_hu|FALSE|FALSE (ssRNA)
RNA: GGGAGUUCUACAGUCCGACGAUCGGCAGGCGCCUUGGUCUCUUUUUUCCACUGUCUUUUUCUUUUGUUUUUCUUAUUUAAGGUUUUGGCCAUGAACUCAGGACAGGUAUGGUUAAUAAACAGGUUACAGGGGAGAGAAGGGGCCAACAGAGGAUUGAGCAUCA
B14: chr3:176767854:176767855:-_ENSG00000177565_ENST00000430069|hu_hu|hu_hu_hu_mus_False|88_88 (ssRNA)
RNA: GGGAGUUCUACAGUCCGACGAUCGACAUCCUUGUUACUGGGCACGUCUUGCCCUCCUUCCCGUAUGCAGUGUCUAAGCACGAGCUGCGUAGGGCCACUCGUGCUGUUCUCACUGAGGUUCCAGAUUCUUGCCGUGGAGUCUCCCAACAGAGGAUUGAGCAUCA
B15: chrX:101156880:101156881:-_ENSMUSG00000056537_ENSMUST00000070705|mus_hu|FALSE|FALSE (ssRNA)
RNA: GGGAGUUCUACAGUCCGACGAUCAGGAAAACUUUAAAUUCUUCAGUUUUCUUUACUCCUCCCAUAUUUCACUUCCUGCCUAAAUCCAAGUUAAAUUAUACAAUUUCCACUGGUCUUCAACACGGUUUAAUUCUGCACUGUCCUCAACAGAGGAUUGAGCAUCA
B16: 63986605_63986725_5413_CDS_ENSG00000103657_ENST00000443617|human|control|control (ssRNA)
RNA: GGGAGUUCUACAGUCCGACGAUCGGGCUGUCCUAGCAUGGUGUCUGUACCACACAACUGUGACAAUACGUUUAGCAGACCAGUGGAAAUUGCCAAAGAAACAUCUACUGGUUGAUAAUGAACACUUAGGGCAAAAACUGUAACCAACAGAGGAUUGAGCAUCA
B17: chr15:85259290:85259291:-_ENSG00000140612_ENST00000559729|hu_mus|motif|central (ssRNA)
RNA: GGGAGUUCUACAGUCCGACGAUCAUUUAGGACUUGGUAGUACAGCUGCCUCUUGUUCAUCCGCCGCACAUCGUCGGGAAAGUCGGGAGACAGCAUGGUGAGAUGGAGAGCGCGACAACUAGCAGCCAAGAGGGCGCGAUAGAACAACAGAGGAUUGAGCAUCA
B18: chr4:174295105:174295106:+_ENSG00000164105_ENST00000296504|hu_hu|motif|central (ssRNA)
RNA: GGGAGUUCUACAGUCCGACGAUCUUGUGCUUUAUUAAGUCCUGGUCUGGUUGGUAGCUUGAAGUGUCUUUUGUAUCUCCGGAGUGUAUUUACUUGUAAUUGGUAUAAAUCAACCUCUGGGGUAUCAAUAUCUUGAACAGGUGACAACAGAGGAUUGAGCAUCA
B19: chr16:94651144:94651145:+_ENSMUSG00000040785_ENSMUST00000117648|mus_hu|mus_mus_mus_hu_True|28_98 (ssRNA)
RNA: GGGAGUUCUACAGUCCGACGAUCAUUUUCUUGAAUCAAGUGACCGAUAACAUAGUCCACUGCUUCAUUUAGAAAAUUUCUGCUAGAAAAACAGGUUGUAUAGUCUUCCGUGCUCAGAACUUUCCAAGAAAGCAAUUCUUUGAGCAACAGAGGAUUGAGCAUCA
B20: chr8:126347721:126347722:+_ENSMUSG00000019478_ENSMUST00000118535|mus_mus|FALSE|FALSE (ssRNA)
RNA: GGGAGUUCUACAGUCCGACGAUCCUGAUGAAGCAAGCAAGAUUUGCCAGUUCCCGCAUUUCCGAUGACCAAGAAUUUAAACAAGAAAUCGUAAGUCUCGGACAUGGCGGUCUGCGCCAUUCUGCCGCCACAGCUCCGCGGGGUCAACAGAGGAUUGAGCAUCA
B21: chr5:86670034:86670035:+_ENSG00000145715_ENST00000456692|hu_mus|FALSE|FALSE (ssRNA)
RNA: GGGAGUUCUACAGUCCGACGAUCCUCUGACCAUACUGGGUUUUGCCCCUCCCUUGCAUGAGUUUUUGCUACUUGGACGCUAUUCAAGUAGAUGUUACAAUAUGGAUUAGUAAAGUGUUUUACUGGUAGUUUAUGGGCUUCUUCCAACAGAGGAUUGAGCAUCA
B22: chr1:23381596:23381597:+_ENSG00000004487_ENST00000356634|hu_hu|FALSE|FALSE (ssRNA)
RNA: GGGAGUUCUACAGUCCGACGAUCAGUUGGUAGGGGUUUUAUCCUCUUAUAGAUGCCGAAGUUGAUAAGACCAUGACGCUCUAAAUAACUGUGAACUCGGUGGACAAGCACAGUAUCACUGUUAUAAGGUGCUUCUAAUUGUUGCAACAGAGGAUUGAGCAUCA

Each binder was assayed against T1, UNK ZnF1-3 (assay: nsRBNS (natural sequence RNA bind-n-seq); RBNS binding buffer (assumed for nsRBNS): 25 mM Tris pH 7.5, 150 mM KCl, 3 mM MgCl2, 0.01% Triton X-100, 500 ug/ml BSA, 20 U/ml SUPERase-In, 4 C; UNK is unkempt and MSI1 is Musashi-1; names of the RNAs are library labels; protein concentration not given here; high values mean tight binding).

Question: B1 was tested. Which binding signal did it give?
Answer: 1.92 enrichment R

Question: For B2, which binding signal is on record?
Answer: 0.729 enrichment R

Question: For B3, which binding signal is on record?
Answer: 1.45 enrichment R

Question: With B4 as the binder, how does the binding signal read?
Answer: 1.53 enrichment R

Question: How did the binding signal turn out when B5 was run?
Answer: 1.42 enrichment R

Question: Which binding signal does the source give for B6 here?
Answer: 2.49 enrichment R

Question: How did the binding signal turn out when B7 was run?
Answer: 0.897 enrichment R

Question: For B8, which binding signal is on record?
Answer: 2.67 enrichment R

Question: Which binding signal does the source give for B9 here?
Answer: 0.724 enrichment R

Question: B10 was tested. Which binding signal did it give?
Answer: 0.995 enrichment R

Question: How did the binding signal turn out when B11 was run?
Answer: 1.42 enrichment R

Question: How did the binding signal turn out when B12 was run?
Answer: 0.784 enrichment R

Question: With B13 as the binder, how does the binding signal read?
Answer: 1.31 enrichment R

Question: How did the binding signal turn out when B14 was run?
Answer: 0.387 enrichment R

Question: With B15 as the binder, how does the binding signal read?
Answer: 1.14 enrichment R

Question: B16 was tested. Which binding signal did it give?
Answer: 0.866 enrichment R

Question: How did the binding signal turn out when B17 was run?
Answer: 0.994 enrichment R

Question: Which binding signal does the source give for B18 here?
Answer: 0.898 enrichment R

Question: Which binding signal does the source give for B19 here?
Answer: 0.461 enrichment R

Question: With B20 as the binder, how does the binding signal read?
Answer: 1.29 enrichment R

Question: With B21 as the binder, how does the binding signal read?
Answer: 0.449 enrichment R

Question: With B22 as the binder, how does the binding signal read?
Answer: 0.733 enrichment R
